The record followed here is paper PMC4336329 (PLoS ONE, 2015).

The whole screen tested about 310,000 compounds, of which about 14,000 (4.5%) showed an effect of 50% or more. The effect is printed as a negative number. This is one part of the list.
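Further: peak tail current of the secondary pulse compared with the same well before compound.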

In the assay the target is human ether-à-go-go-related gene (hERG) potassium channel (human, UniProt Q12809). Kind of assay: primary screen, population patch clamp on CHO cells stably expressing hERG.
human ether-à-go-go-related gene (hERG) potassium channel, sequence (Q12809 whole entry, looked up): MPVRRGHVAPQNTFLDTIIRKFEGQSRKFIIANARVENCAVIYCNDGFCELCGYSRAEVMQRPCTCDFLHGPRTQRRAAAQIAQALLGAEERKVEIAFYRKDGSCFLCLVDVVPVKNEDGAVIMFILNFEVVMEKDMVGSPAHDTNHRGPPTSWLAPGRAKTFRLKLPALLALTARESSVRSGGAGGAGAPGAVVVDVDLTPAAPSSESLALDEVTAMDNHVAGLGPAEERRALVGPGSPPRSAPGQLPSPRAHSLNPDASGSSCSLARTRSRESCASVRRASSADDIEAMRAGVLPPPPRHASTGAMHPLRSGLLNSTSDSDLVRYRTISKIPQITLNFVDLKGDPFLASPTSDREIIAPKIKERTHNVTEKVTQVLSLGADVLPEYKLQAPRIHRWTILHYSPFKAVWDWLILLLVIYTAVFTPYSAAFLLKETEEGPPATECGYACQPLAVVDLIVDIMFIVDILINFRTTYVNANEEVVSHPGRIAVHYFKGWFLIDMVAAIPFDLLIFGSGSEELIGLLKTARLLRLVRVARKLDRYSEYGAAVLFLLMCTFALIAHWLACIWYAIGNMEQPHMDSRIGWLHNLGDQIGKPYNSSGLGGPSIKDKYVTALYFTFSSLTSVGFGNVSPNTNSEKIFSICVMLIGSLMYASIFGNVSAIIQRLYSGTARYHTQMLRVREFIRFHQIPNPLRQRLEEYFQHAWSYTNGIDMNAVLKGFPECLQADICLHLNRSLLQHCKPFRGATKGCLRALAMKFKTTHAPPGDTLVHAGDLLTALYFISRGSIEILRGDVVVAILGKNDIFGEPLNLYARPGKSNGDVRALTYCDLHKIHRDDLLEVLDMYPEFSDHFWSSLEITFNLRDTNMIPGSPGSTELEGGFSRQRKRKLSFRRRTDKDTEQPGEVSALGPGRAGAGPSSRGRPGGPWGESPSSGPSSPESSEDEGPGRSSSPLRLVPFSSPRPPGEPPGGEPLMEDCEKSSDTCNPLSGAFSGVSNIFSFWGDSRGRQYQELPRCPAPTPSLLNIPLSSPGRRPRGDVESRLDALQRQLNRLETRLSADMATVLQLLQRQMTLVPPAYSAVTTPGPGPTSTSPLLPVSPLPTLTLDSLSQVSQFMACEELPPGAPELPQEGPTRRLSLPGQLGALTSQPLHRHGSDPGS
With `COc1cc(OC)c2c(-c3ccccc3)cc(=O)oc2c1C(CCN1CCN(c2ccccc2)CC1)c1ccc(N(C)C)cc1` (stereo not drawn), the “hERG current change (%, negative = inhibition) at 10uM” value amounted to 7.89%. For `CCCCOC(=O)n1c(=O)oc2ccc(S(=O)(=O)N3CCCCC3)cc21`, the “hERG current change (%, negative = inhibition) at 10uM” value is given as -1.64%. Then `Clc1ccccc1-c1nc2ccccc2c2nc3ccccc3n12`, with -13.7%; and `O=C(NC1CCCC1)C(c1cccnc1)N(Cc1ccccc1F)C(=O)c1csnn1` (stereo not drawn), with -15.6%. Turning to `CCCC(=O)N(c1ccc2oc(=O)sc2c1)S(=O)(=O)c1ccccc1`, the “hERG current change (%, negative = inhibition) at 10uM” value is listed as 8.84%. `CCOc1ccc(C(=O)N[C@H](C(=O)Nc2ccccc2OC)C(C)C)cc1`: the “hERG current change (%, negative = inhibition) at 10uM” value is on record as -28.7%.

For `Cc1cc(=O)[nH]c(SCCOc2cccc(C(F)(F)F)c2)n1`, the “hERG current change (%, negative = inhibition) at 10uM” value is reported as 12.1%. Under `FC(F)(F)c1ccc(-n2cn[nH]c2=S)cc1` stands 18.7%; under `Cc1cccc(CN2CCN(C(c3ccccc3)c3ccc(Cl)cc3)CC2)c1.Cl` (stereo not drawn), 18.5%; under `O=C(NCCC1CC1(Cl)Cl)c1ccc([N+](=O)[O-])cc1` (stereo not drawn), -19%. For `CCN(CC(=O)NC1CCS(=O)(=O)C1)S(=O)(=O)c1cc(Br)ccc1Br` (stereo not drawn), the “hERG current change (%, negative = inhibition) at 10uM” value was -13.7%. As for `O=C(N/N=C/c1ccoc1)c1ccccc1O`, the “hERG current change (%, negative = inhibition) at 10uM” value was 9.69%. On to `O=C(c1ccc2ccccc2c1)C1CCCN(C(=O)c2cccnc2)C1` (stereo not drawn), for which the “hERG current change (%, negative = inhibition) at 10uM” value is given as -8.48%. As for `Cc1ccc(S(=O)(=O)N(C)C)cc1NC(=O)c1c(-c2c(F)cccc2Cl)noc1C`, the “hERG current change (%, negative = inhibition) at 10uM” value was -4.27%. As to `Cc1c(C(=O)NCc2ccc3c(c2)OCO3)sc2nc(-c3ccc(F)cc3)cn12`, the “hERG current change (%, negative = inhibition) at 10uM” value is reported as 12.1%.

With `Nc1nc(SCC(=O)Nc2ccccc2Oc2ccccc2)n[nH]1`, the “hERG current change (%, negative = inhibition) at 10uM” value was determined as 4.67%. For the molecule `Cc1ccc(S(=O)(=O)N(C)C)cc1NC(=O)C1Cc2ccccc2CN1C(=O)c1ccco1` (stereo not drawn), the “hERG current change (%, negative = inhibition) at 10uM” value is -9.91%. As for `CCN(CC)CCCNC(=O)CCc1ccccc1`, the “hERG current change (%, negative = inhibition) at 10uM” value is listed as -13.3%. `CC(C)=CC(=O)NCCc1ccccc1`: the “hERG current change (%, negative = inhibition) at 10uM” value was -5.36%.

`Cc1nc2ccccc2cc1C(=O)O`: the “hERG current change (%, negative = inhibition) at 10uM” value worked out at 22.8%. Take `COc1ccc(CCNc2oc(-c3ccc(OC)c(OC)c3)nc2P(=O)(OC)OC)cc1OC`: the “hERG current change (%, negative = inhibition) at 10uM” value is recorded as -22%.

Turning to `CN(C)N1C(N)=C(C#N)C(c2ccccc2)C2=C1CCCC2=O` (stereo not drawn), the “hERG current change (%, negative = inhibition) at 10uM” value worked out at 5.36%. Then `O=C(CCN1C(=O)/C(=C/c2cccs2)SC1=S)Nc1ccccc1O`, with 13.7%. `Cn1c(=O)[nH]c(=O)c2c1nc(N1CCCCC1)n2CCCSc1nnnn1-c1ccccc1`: the “hERG current change (%, negative = inhibition) at 10uM” value is on record as -48.7%.
